# In publication PMC6305191:
# Sequences of proteins named here, by UniProt entry; tags and fusion partners are left off.
# UniProt Q9C5P6: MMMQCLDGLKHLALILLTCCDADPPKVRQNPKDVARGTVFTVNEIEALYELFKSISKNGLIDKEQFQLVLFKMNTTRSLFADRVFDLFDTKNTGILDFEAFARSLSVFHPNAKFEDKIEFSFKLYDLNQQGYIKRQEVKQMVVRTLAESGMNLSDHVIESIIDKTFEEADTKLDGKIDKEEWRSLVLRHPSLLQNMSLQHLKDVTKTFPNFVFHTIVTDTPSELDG
# UniProt Q9SUA6: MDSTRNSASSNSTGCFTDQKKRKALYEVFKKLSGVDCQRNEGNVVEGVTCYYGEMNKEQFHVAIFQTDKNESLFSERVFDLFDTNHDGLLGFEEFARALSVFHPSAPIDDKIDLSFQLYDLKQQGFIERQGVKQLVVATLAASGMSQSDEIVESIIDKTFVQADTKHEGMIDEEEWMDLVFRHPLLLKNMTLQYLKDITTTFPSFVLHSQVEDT
# UniProt O81445: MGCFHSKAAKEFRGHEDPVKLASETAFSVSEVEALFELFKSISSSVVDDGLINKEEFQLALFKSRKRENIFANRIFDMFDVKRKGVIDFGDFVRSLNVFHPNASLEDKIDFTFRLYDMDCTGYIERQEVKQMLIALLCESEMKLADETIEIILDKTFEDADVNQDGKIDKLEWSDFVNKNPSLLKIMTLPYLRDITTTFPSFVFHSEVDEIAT
# UniProt O81223: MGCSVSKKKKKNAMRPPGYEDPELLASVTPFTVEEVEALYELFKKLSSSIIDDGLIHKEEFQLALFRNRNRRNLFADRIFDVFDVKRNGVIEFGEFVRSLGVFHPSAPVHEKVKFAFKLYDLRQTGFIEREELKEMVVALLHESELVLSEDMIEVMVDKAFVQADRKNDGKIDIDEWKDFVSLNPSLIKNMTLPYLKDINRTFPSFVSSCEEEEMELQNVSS
# UniProt Q7FRS8: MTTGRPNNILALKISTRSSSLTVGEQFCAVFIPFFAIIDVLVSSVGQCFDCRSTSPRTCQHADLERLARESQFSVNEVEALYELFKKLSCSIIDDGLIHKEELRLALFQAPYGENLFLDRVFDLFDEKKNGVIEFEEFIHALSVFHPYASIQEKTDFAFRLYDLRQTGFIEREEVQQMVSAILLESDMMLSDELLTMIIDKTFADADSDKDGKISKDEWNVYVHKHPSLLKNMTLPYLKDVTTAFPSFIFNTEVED
# UniProt Q9LTB8: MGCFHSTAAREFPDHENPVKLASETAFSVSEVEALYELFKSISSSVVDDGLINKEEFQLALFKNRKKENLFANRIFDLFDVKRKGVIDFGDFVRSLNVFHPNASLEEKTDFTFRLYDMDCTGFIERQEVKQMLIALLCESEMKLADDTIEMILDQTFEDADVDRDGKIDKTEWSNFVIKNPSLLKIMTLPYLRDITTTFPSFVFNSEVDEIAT
# No constants are given. Whether binding was seen depends on the method and setting. For some of these results: Binding seen in cells or lysates may run through a third protein. Some entries that bind do so weakly or less than the wild type. Sequences can lack the tags named with a protein.
# T1: CIPK25 (CBL-interacting protein kinase 25) fused to the GAL4 DNA-binding domain (Arabidopsis thaliana) (UniProt Q8W1D5)
# T1 sequence: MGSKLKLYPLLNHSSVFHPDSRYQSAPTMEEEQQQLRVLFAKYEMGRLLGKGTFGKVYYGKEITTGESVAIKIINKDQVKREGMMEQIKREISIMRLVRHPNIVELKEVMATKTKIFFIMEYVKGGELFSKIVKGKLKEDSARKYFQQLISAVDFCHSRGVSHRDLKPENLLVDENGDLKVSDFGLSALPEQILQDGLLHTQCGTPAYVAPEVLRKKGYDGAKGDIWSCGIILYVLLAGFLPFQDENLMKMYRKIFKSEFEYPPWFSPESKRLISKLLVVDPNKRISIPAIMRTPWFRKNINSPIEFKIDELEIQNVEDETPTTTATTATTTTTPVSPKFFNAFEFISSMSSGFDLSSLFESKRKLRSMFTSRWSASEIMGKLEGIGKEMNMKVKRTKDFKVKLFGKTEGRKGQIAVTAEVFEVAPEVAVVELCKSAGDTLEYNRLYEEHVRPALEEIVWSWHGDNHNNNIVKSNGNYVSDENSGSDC
# T2: YFP^N–CIPK25 (Arabidopsis thaliana) (UniProt Q8W1D5)
# T2 sequence: T1 sequence
# B1: CBL5 (calcineurin B-like protein 5) fused to the GAL4 activation domain (protein, UniProt Q7FZF1 1-203)
# chain: MGCVCSKQLEGRRQEDISLLASQTFFSEAEVEVLHGLFIKLTSCLSNDNLLTKEKFQFILIKNTKKRSLSAERIFGLFDMRNDGAIDFGEFVHTLNIFHPNSSPRDKAIFAFRLYDTRETGFIEPEEVKEMIIDVLEESELMLSESIIDSIVSKTFEEADWKKDGIIDLEEWENFVATYPLTLKNMTIPFLKDIPRIFPTFLR
# B2: CBL8 (calcineurin B-like protein 8) fused to the GAL4 activation domain (protein, UniProt Q9FUQ7 1-214)
# chain: MLAFVKCFSLKRAKHPRGYEDPHVLASETPFTVNEIEALHDLFKKLSTSIINDGLIHKEEFLLALFRNGSMQNLFADRVFYMFDRKRNGVIEFGEFVRSLSIFHPYTPEHEKSAFMFKLFDLHGTGFIEPHELKKMVGALLGETDLELSEESIEAIVEQTMLEVDTNKDGKIDEEEWKELVAKNPSILKNMTLPYLKEVTLAFPSFVLDSEVED
# B3: CBL5–YFP^C (protein, UniProt Q7FZF1 1-203)
# chain: B1 chain
# Molecular target: T1, CIPK25 (CBL-interacting protein kinase 25) fused to the GAL4 DNA-binding domain (Arabidopsis thaliana)
# Assay: two-hybrid; GAL4 DNA-binding domain-CIPK25 (pGBKT7) with GAL4 activation domain-CBL1 to CBL10 (pGADT7) in Y2H Gold yeast; dilutions spotted on quadruple drop-out medium (-Leu-Trp-Ade-His) with 2.5 mM 3-AT, 30 °C, 5 d
row,binding,Molecule
1,no binding,CBL6 (calcineurin B-like protein 6) fused to the GAL4 activation domain (from UniProt Q9C5P6 1-226)
2,no binding,CBL7 (calcineurin B-like protein 7) fused to the GAL4 activation domain (from UniProt Q9SUA6 1-214)
3,no binding,CBL2 (calcineurin B-like protein 2) fused to the GAL4 activation domain (from UniProt Q8LAS7 1-226)
4,no binding,CBL1 (calcineurin B-like protein 1) fused to the GAL4 activation domain (from UniProt O81445 1-213)
5,no binding,CBL3 (calcineurin B-like protein 3) fused to the GAL4 activation domain (from UniProt Q8LEM7 1-226)
6,binds,CBL4 (calcineurin B-like protein 4) fused to the GAL4 activation domain (from UniProt O81223 1-222)
7,no binding,CBL10 (calcineurin B-like protein 10) fused to the GAL4 activation domain (from UniProt Q7FRS8 1-256)
8,no binding,CBL9 (calcineurin B-like protein 9) fused to the GAL4 activation domain (from UniProt Q9LTB8 1-213)
9,binds,B1
10,no binding,B2

# Molecular target: T2, YFP^N–CIPK25 (Arabidopsis thaliana)
# Assay: split reporter; BiFC: YFP^N–CIPK25 with CBL–YFP^C transiently expressed in N. benthamiana leaves by agroinfiltration; YFP fluorescence by confocal microscopy and, for leaf discs, by plate reader (485 nm excitation, 520 nm emission)
row,binding,Molecule
1,no binding,CBL9–YFP^C (from UniProt Q9LTB8 1-213)
2,binds,CBL4–YFP^C (from UniProt O81223 1-222)

row,Molecule,binding
1,B3,binds
